Assay results taken from PubChem BioAssay (NCATS).
Values joined by “and” are separate entries in the source; they are usually repeats but may differ in a detail not shown here. Equal entries are not always repeated. This list was built around the results that the source calls inconclusive (neither active nor inactive); the mix of calls is not that of the screen. For some assays here: Potencies beside an inconclusive call are fits to weak or partial responses and may not hold up. Active and inactive are the calls of the source. The call rests on the fitted dose curve; in most records, active means well fitted curve in the direction sought with a large enough effect; inconclusive means small, poorly fitted or top-dose-only effect, or another doubt; inactive means no such curve, though single readings can be large; an effect the other way counts as inactive or inconclusive.

Assays:
[1] = Viability qHTS for spleen associated tyrosine kinase inhibitor (SYKi) naive MV4-11 cells (AID 1963823); conditions: MV4-11 AML viability, CellTiter-Glo luminescence, 72 h; series mostly up to 45 µM; further: potency means the concentration at half of the fitted maximal effect; nearly all actives have a fitted effect of over 40% in size
In short: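 Viability of MV4-11 AML cells lacking prior SYK inhibitor exposure is scored by CellTiter-Glo luminescence following 72 hr compound incubation at 37 C, 5% CO2, seeded at 500 cells per well.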

[2] = Viability qHTS for spleen associated tyrosine kinase inhibitor (SYKi) drug resistant MV4-11 cells (AID 1963824); further: potency means the concentration at half of the fitted maximal effect; nearly all actives have a fitted effect of over 35% in size
In short: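 SYK-inhibitor-resistant MV4-11 AML cells were seeded at 500 per well onto compound and cultured 72 hours (37 °C, 5% CO2). CellTiter-Glo was then added, and after 10 min at room temperature, luminescence gave viability.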

[3] = Quantitative highthroughput screen to assess conditional lethalithy of NOMO1 cells grown in RPMI1640 with dialyzed fetal bovine serum (RPMI+ds) (AID 1963877); further: nearly all actives have a fitted effect of over 30% in size; further: potency means the concentration at half of the fitted maximal effect
In short: (§1)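 Each medium arm—HPLM with 10% dialyzed FBS, or RPMI1640 with 5 mM glucose and 10% untreated or dialyzed FBS—was screened against an 11-point, 3-fold compound titration for 48 h at 37 °C, with CellTiter-Glo luminescence as endpoint.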

[4] = Quantitative highthroughput screen to assess conditional lethalithy of NOMO1 cells grown in Human Plasma-Like Medium with dialyzed fetal bovine serum (HPLM+ds) (AID 1963878); conditions: NOMO1 AML cells in HPLM+ds, CellTiter-Glo viability, 48 h; viability: at 45.8 µM (top of the series); further: nearly all actives have a fitted effect of over 35% in size
In short: as §1

[5] = Quantitative highthroughput screen to assess conditional lethalithy of P12 Ichikawa cells grown in RPMI1640 with untreated serum (RPMI+s) (AID 1963881); conditions: Potency: viability; further: potency means the concentration at half of the fitted maximal effect; nearly all actives have a fitted effect of over 35% in size
In short: as §1

[6] = Quantitative highthroughput screen to assess conditional lethalithy of SEM cells grown in Human Plasma-Like Medium with dialyzed fetal bovine serum (HPLM+ds) (AID 1963882); further: nearly all actives have a fitted effect of over 35% in size; further: potency means the concentration at half of the fitted maximal effect
In short: as §1

[7] = Quantitative highthroughput screen to assess conditional lethalithy of SEM cells grown in RPMI1640 with unreated serum (RPMI+s) (AID 1963883); conditions: SEM B-ALL cells, CellTiter-Glo viability, 48 h; viability: at 45.8 µM (top of the series); further: nearly all actives have a fitted effect of over 35% in size; further: potency means the concentration at half of the fitted maximal effect
In short: as §1

[8] = Quantitative highthroughput screen to assess conditional lethalithy of SEM cells grown in RPMI1640 with dialyzed fetal bovine serum (RPMI+ds) (AID 1963884); conditions: SEM B-ALL cells, RPMI+dialyzed FBS, CellTiter-Glo viability, 48 h; viability: at 45.8 µM (top of the series)
In short: as §1

[9] = Quantitative highthroughput screen to assess conditional lethalithy of P12 Ichikawa cells grown in Human Plasma-Like Medium with dialyzed fetal bovine serum (HPLM+ds) (AID 1963879); conditions: Potency: viability
In short: as §1

[10] = Quantitative highthroughput screen to assess conditional lethalithy of P12 Ichikawa cells grown in RPMI1640 with dialyzed fetal bovine serum (RPMI+ds) (AID 1963880); conditions: Potency: P12-Ichikawa viability
In short: as §1

[11] = Cellular viability qHTS for adrenocortical cancer (ACC) cell line SW-13 (AID 1963989); conditions: SW-13 ACC cells viability, CellTiter-Glo, 48 h; activity (max response): stronger effect = lower value; further: potency means the concentration at half of the fitted maximal effect; nearly all actives have a fitted effect of over 65% in size
In short: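 Compound titrations (up to 46 uM final, in DMSO) were applied to SW-13 cells for 48 h at 37C/5% CO2. Reading used CellTiter-Glo after 20 min at room temperature; fitted curves yielded IC50 and efficacy.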

[12] = Cellular viability qHTS for adrenocortical cancer (ACC) cell line NCI-H295R (AID 1963990); conditions: CellTiter-Glo ATP luminescence, 48 h; series mostly up to 46.1 µM; further: potency means the concentration at half of the fitted maximal effect; nearly all actives have a fitted effect of over 60% in size
In short: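 Readout: CellTiter-Glo luminescence, 20 min RT. Exposure: 48 h, 37C/5% CO2. Cells: NCI-H295R, ITS-DMEM serum-free. Range: up to 46 uM. Analysis: 4PL fit, IC50 plus efficacy.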
Tags describe the fitted curve by direction and shape.

Compound | Potency [1] | Potency [2] | Potency [3] | Potency [4] | Potency [5] | Potency [6] | Potency [7] | Potency [8] | Potency [9] | Potency [10] | Potency [11] | Potency [12]
CCCCCCCN(CC)CCCC(O)c1ccc(NS(C)(=O)=O)cc1 (centres undefined) | inconclusive: 18.6 µM [cytotoxic, partial curve] | inconclusive: 18.6 µM [cytotoxic, partial curve] | inactive | inactive | inconclusive: 18.7 µM [cytotoxic, partial curve, poor fit] | inconclusive: 37200 nM [cytotoxic, single point] | inconclusive: 26.4 µM [cytotoxic, single point] | inconclusive: 29.6 µM [cytotoxic, single point] |  |  |  | 
OC(CN1CCC(Cc2ccc(F)cc2)CC1)c1ccc(Cl)cc1 (centres undefined) | active: 5.31 µM | inconclusive: 8.41 µM [cytotoxic, partial curve, poor fit] | inactive | inactive |  | inactive | inactive |  |  |  |  | 
Cc1nc(Nc2n[nH]c3c2CN(C(=O)N[C@H](CN(C)C)c2ccccc2)C3(C)C)c2sccc2n1 | inconclusive: 29.1 nM [cytotoxic, full curve] and active: 13.2 nM | inconclusive: 0.0206 µM [cytotoxic, full curve] | active: 3.72 µM |  | active: 1.66 µM | active: 743 nM |  |  | inconclusive: 10.5 µM [cytotoxic, partial curve] |  |  | 
CC(=O)N(O)CCCCCNC(=O)CCC(=O)N(O)CCCCCNC(=O)CCC(=O)N(O)CCCCCN | inconclusive: 11.9 µM [cytotoxic, partial curve] | inconclusive: 10.6 µM [cytotoxic, partial curve] | active: 0.0831 µM |  |  | inconclusive: 11.7 nM [cytotoxic, full curve] | inconclusive: 0.0021 µM [cytotoxic, full curve] |  | active: 0.0047 µM | active: 74.1 nM | inconclusive: 29.1 µM [cytotoxic, single point] and active: 28.2 µM | inconclusive: 29.1 µM [cytotoxic, single point]
